Assay results: the RNAGym collection of RNA variant scans (doi:10.7554/elife.90254)
Read counts are not given, so values of variants with three or more changes are uncertain.

B1: LINE1-mini (parent)
chain: GGCAGAGCUCAACACAGCGUGGCAAAGUGGCUGUGGCUAGACUGCC

Variants of: B1
Assay: self-cleavage, relative activity (ratio to wild type); higher = more cleavage; in vitro, sequencing; the parent is a self-cleaving ribozyme

Row | Variant | self-cleavage
1 | GGCACAGCUCAACACAGCGUGGCAAAGUGACUGUGGUUAGACUGCC | 0.05
2 | GGCACAGCUCAACACAGCGUGGCAAAGUGGCUGUGGCAAGACUGUC | 0.05
3 | GGCAGAGCUGAACACAGCGUGGCCAAGUGGCUGUGGCAAGACUGCC | 0.04
4 | GGCUGAGCUCAACACAGCGUGGCAAAGUGGGUGUGGCUAGUCUGCC | 0.01
5 | GGCAGAGCUCAACACAGCGUGGCAAUCAGGCUCUGGCUAGACUGGC | 0.04
6 | GGCAGAGCCCAACACAGCGUGGCAAAGUGGCUGUGGCUAAAUUGCC | 0.03
7 | GGCAGAGCUCAACACAGCGUCGCACAGUGGAAGUGGCUAGACUGCC | 0.53
8 | GGCAGAGCUCAACACAGAGUGGCAAAGUGGCUGUGGCAUGAGUGCC | 0
9 | GUCAGAGCUCAACACUGCGUGGCACAGUGGCUGUGGCUAGACUGCG | 0.01
10 | GGCAGAGCUAAACACAGGGUGGCAACGUGGCUGUGGCUAGACUGCC | 0.04
11 | GGCUGAGCUCAACAAAGCGUGGCAAAGUGGCGGUGGCUAGACUGCC | 0.06
12 | GGCAGAGAUCCACACAGCGUGGCAAAGUGGCUGUCGCUAGACUGCC | 0.02
13 | GGCAGAGCUCAACUCAGCGUGGCAAUUUGGCUGUGGCUAGACUGCC | 0.03
14 | GGCAGAGCUCAAGACAGCGUGGCAAAGUGCCUGUGGCGAGACUGCC | 0.02
15 | GGCCGAGCUCAACACAGCGUGAAAAAUUGGCUGUGGCUAGACUGCC | 0.04
16 | GGCAUAGCUCAACACAGCGUGGCAAAGUGGCUGUGGCUGGACUGAC | 0.03
17 | GGCAGAGUUCGACACAGCCUGGCAAAGUGGCUGUGGCUAGAUUGCC | 0.02
18 | GACAGAGCUCAACACAGCGGGGCAAAGUGGCUGUGGCUAGAUUGCC | 0.2
19 | GGCAGAGCUCAACACAGCGUGGCAAAUUGGAUGUGGCUAGAAUGCC | 0.03
20 | GACGGAGCUAAACACAGCGUGCCAAAGUGGCUGUGGCAAGACUGCC | 0.02
21 | GGCAGAGCUCAACGCAGCGUGGCAAAGUGGCUUUGGUUAGGCUGCG | 0.03
22 | GGCAGAGCUCAACGCAGCGUGGCUAACUGGCUGUGGCUAGACUGUC | 0.11
23 | GGCAGAGCUCAACACCUCGUGGCAAAGUGGCAGUCGUUAGACUGCC | 0.23

Row | Variant | self-cleavage
24 | GGGAGAGCUCAACACAGCUUGGCAAAGUGGCUGUUGCUAGACUGCC | 0.03
25 | GGCAGAGCUAAAAACAGCGUGGCAAUGUGGCUGUGGCUAGACUGCC | 0.01
26 | GGCAGAGCUCAACACGGCGUGGCAAGGUGGCAGUGCCUCGAAUGCC | 0.01
27 | GGCAGGGCUCACCACAGCGUGGCAAAGUCGAUGUGCCUAGACUGCC | 0
28 | UGCAGAGCUCUACACAGGGUGGCAAAAUGGCUGUGGCUAGACUGCC | 0.01
29 | GGCAUAGUUCAACACAGCGUGGCAAAGUGGCUCUGGCUAGACUGCC | 0.09
30 | GGCAUAGCUCAACACAGCGUGGCAAAGGGGCUUUGGCUAGACUCGC | 0.04
31 | UGCAGAGCUCAACACAGAGUGUCAAAGUGGCUUUGGCUGGACUGCC | 0.06
32 | GGCAGAGCUAAACACUGCGUGGCAAAGUUGCUGUGGCUAGACUGCC | 0.32
33 | GGCCGAGCUCAACACAGCGUGGCAAAGUGGGUGUGGCUGUACUGCC | 0.16
34 | GGCAGAGCCCAGCACAGCGUGGCAAAGUGGCUGUGGCUAUACUGCC | 0
35 | GGCAGAACUCAACACAGCGAGGCAAAGUUGCUGUGGCUAUACUUCC | 0.11
36 | GGCAUAGCUCAACACAGCUUGGCAAAGUGGCUGUGGCUAGAGUGCC | 0.02
37 | GGCUGAGCUCAACACAGCGUGGCAAAGUGGAUGUGCCUAAACUGCC | 0.11
38 | GGCAGAGCUCAACACAGCGUGGCAAAGUGAAUGUGGCUAGACGUCC | 0.12
39 | GGAAGAGCUCAAAAGAGCGGGGCAAAGUGGAUGUGGCUAGACUGUC | 0.04
40 | GGCAGAGAUCAACACAGCGUGGCAAAGUGGCUGUGGAUAUACUGCC | 0.08
41 | GGCAGAGCUAAACACAGCGUGGCAAAGUGGAUGGGGCUAGACUGCC | 0.03
42 | GGCAGAGCUCAACACAGCGUGACAAAUUGGCUGAGGAUAGACUGCC | 0.05
43 | GGCAGAGCUGUACUCAGCGUGGUAAAGUGGCUGUGGCUAGACUGCC | 0.02
44 | GGCAGAGCUCAACGCAGAGUGGCAAAGUGCCUGUGGCUAGACUGCC | 0.27
45 | GGCAGAGCUCAAGACAGCGUGGCAAAGUGGCUGUGGCUACAUUGCC | 0.13
46 | GGCGGAGCUCAACACUUCGUGGCAAAGUGGCUGUGGCUAACCUGCC | 0.04

Row | Variant | self-cleavage
47 | GGCAGAGCUCAACACAGCGCGGCAAAAUGGCUGUGGCUAGACGGCC | 0
48 | GGCCCGGCUUAAGACGGCAUGGCAAAGUGGCUGUGGCUAGACUGCC | 0.01
49 | CGCAGAGCUCAACACUGCGUGGCAAAGUGGCUGUGGCUAGACUGCA | 0.03
50 | GGCAGAGCUCAACACAGCGUAGCAAAGUAGCUGUGGCUAAGCUGCC | 0.1
51 | GGCAGAGCUCAACACAGCGUGGGAAAGUGGCUGUGGGUGGACUGCC | 0
52 | GGCAGAGCUCAACACAGCGUGGCACAGUGGAUGUGGAUAGACUGCA | 0.01
53 | GGCAGAGCACAACACAGCGUGGCAAAGUGGCUGCGGCUAGACAGAC | 0.22
54 | GGCAGGUCUCACCACAGCGUGGCAAAGUGGCUGUGGCUAGACUGCC | 0.01
55 | GGCAGAGGUCAACAAAGCGUGGCAAAGUGGCUGUUGCUAGACUGCC | 0.04
56 | GGCACAGCUCAACGCAGCGUGGCAAAGUGGCUGUGGCUAGAUUGCC | 0.03
57 | GGCAGCGUUCAACGCAGCGUGGCAAAGUGGCUGUGGCUAGACUGCC | 0.04
58 | GGCAGAGCUCAACACAGCCUGGCAAAGUGGCUGUGGAUAGGCUACC | 0
59 | GGCAGAGCUCAACAUAGCGUGCCAAAGUGGCGGUGGCUAGACUGCC | 0.02
60 | GGCAGAGCUCAACACAGCGUGGGAAACUGGCUGUGUCUAGACUGCC | 0.05
61 | GGCCGAGCUCAACGCAGCGGGGCAAAGUGGCUGUGGCUAGACUGCC | 0.67
62 | GGCAGAGUUAAACACAGAGUGGCAAAGUGGCUGUGGCUAGACUGCC | 0.02
63 | GGCAGAGCUCCACACAGCGUGGCAAGGUGGCUGUGGCUAAACUGCC | 0.04
64 | GUCAGAGCUGAACACAGCGUGGCAGAGUGGCUGUGGCAAGAAUGCC | 0.01
65 | CACAGAGCUCAACACAGCGUGGCAAAGUGGCUGCGGCUAGCCUGCC | 0.01
66 | GGCAGGGCUAAACACAACGUGGCAAAGUGGCUGUGGCUAGAAUGCC | 0.03
67 | AGAAGAGCUCAACACAGCGUGGCAAAGUGUCUGUCGCUACACUGCC | 0.36
68 | CUCAGAGCUCAACAGAGAUUGGCAGAGUGGCUGUGGCUAGACUGCC | 0.01
69 | GGAAGAGCUCAAUACAGCGUGGAAAAGUGGCUGUUGCUAGACUGCC | 1.85

Row | Variant | self-cleavage
70 | AGCAGAGCUCAACGCAGCCUGGCAAAGUGGCUGUGGCUAGACUGCC | 0.09
71 | GGCUGAGCUAGACACAGCGUGGCAAAGUGGCUGUGGCUUGACUGCC | 0.01
72 | GGAAGAGCUCAACAUAGCGUGGCAAAGUGGCUGUGGCUAGUCUGUC | 0.26
73 | GGCAUACCUCAACAUAGCGUGGCAUAGUGGCCGUGGCUAGACCGCC | 0.01
74 | GGCAGAGCGCAAAACAGCGUGGCAAAGUGGCUGUGGCUAGCCUGCC | 0.04
75 | GGCACAGCUCACCACAACGUGGCAAAGUGGCUGUGGCUAGACUGCC | 0.03
76 | GGCCAAGCUCAACACAGGGUGGCAAAGUUGCUGUGGCUAGGCUACC | 0.16
77 | GGCAGAGCUCAACACAGGGUGGCAAAGUGGUUGUGCCUACACUGCU | 0.05
78 | GGCAGAGCUCAAGCCAGCGUUGCAAAGGAGCUGUGGCUAGAGUCCC | 0.01
79 | GGCAGAGCACAACACAGCGUCGCAAAUUGGCUGUAGGUCGACUGCC | 0.17
80 | GGCAGAGCUCAACACAGGGUGGCAAAGUGGCUGUGACUGCACUGCU | 0.02
81 | GGCAGAGCUCAUCACAGCGUGGCACAGUGGCUGUGGCUAGACUGCA | 0.05
82 | GGCAGAGCUCAACACAGCGUGGCAAAAAGGCUGUCGCUAGGCUGCC | 0.06
83 | GGCAGAGCUCAUCACAGCUUGACAAAGUGGCUGCGGCUAGACUGCC | 0.08
84 | GUCAGAGCUAAACACAGCGUGCCAAAGUGGCUGUGGCUAGACUGCU | 0
85 | GGCAGAGCUCAACCCAGCGUGGCAAAGUGGUUCUGGCUAGACUGGC | 0.02
86 | GGCAGAGCUCAACACAGCGUGGCAAAGUGGCUGUGGCGAGACUGAA | 0.02
87 | GGCAGAGCUCAACACAGCGUGUAAAAAUGGCUGUGGCUAGACUGCC | 0.31
88 | UGCAGAGAUCAACACAGCGUGACAAAGUAGCUGUGGCUAGACUGCC | 0.05
89 | GGUAGAGCUCAGCACAGCGUGGCAGAGUGGCUGUGGCUACACUGCC | 0.12
90 | UGCAGAGCUCAACGCAACGUGGCAAAGUGCUUGUGGCUAGACUGCC | 0.01
91 | GGCAGGGCUUAACACAGCGGGGCAAGGUGGCAGUGGCUAGACUGUC | 0.03
92 | GGCAAAGCUCAACCCAGCGGGGCAAAGUGGCUGUGGCUAGCCUGCG | 0.06

Row | Variant | self-cleavage
93 | GGCAGAGCUCGACAAAACAUGGCAAAGUGGCUGUGGCUAGACUGCC | 0.02
94 | GACAGAGCUCAACACAGGGUGGCAAAGUGGCUGUCGCUAGACUGCC | 0.11
95 | GGCCGAGCUCAACACAGCGUGGCAAAGUGUCUGUGGCUAGACAGCC | 0.07
96 | GACAGAGCACAACACAGCGUGGCAAACUGGCUGUGGCUAAACUGCC | 0.12
97 | GGCAGAGCUCAACACUGCGUGGCAAACUGCCUGUGGCUAGACUGCC | 0.55
98 | GGGAGAGCUCAACACAACGUGGCAAAGUGGCUAUAGCUAGACUGCC | 0.03
99 | GGCAGAGCUCCACACAGCGGUCCAAAGUGGCUGAGGCUAGACUGCC | 0.03
100 | CACAGCGCUCAACACAGCGUGGCAAAGUGGCUGUGGCUAGACUGCC | 0.04
101 | GGCAGAGCUCAACACAGCGUGGCAAAUUGGCUCUGGCUAAACUGUC | 0
102 | GGCGGAGCUCAACACAGCGUGGCAAAGUGGCUUUGUAUAGACUGCC | 0.02
103 | GGCAGAGCUCAACACAGCGGGGCAAAGUCGCUCUGGCUAGACUGCC | 0.11
104 | CGCAGAACUCUACACAGCGUGGCAAAGUUACCGUGGCUAGUCUGCC | 0.01
105 | GGCAGAGCCCAACACAACGCGGAAAAGUGGCUGUGGCUAGACUGCC | 0.02
106 | GGCACAGCUAAACACAGCGAGGCAAAGUGGCUGUGGCUAGACUGCC | 0.02
107 | GGCAGGGCUCAAAAGAGCGUGGCGAAGUGGCUGUGGCUAGACUGCC | 0.09
108 | GGCAGAGUUCAACACAGCGUGGCAUAGGGGCUGUGGCUAGACUGCC | 0.14
109 | GGCAGAGCUCGACACAGCGUGGCAAAGUGGCUGUGGAUAGACUGCU | 0.01
110 | GGAAGAGCGCAGCACAGCGUGGAAAAGUGGCUGUGGCUAGACUGCC | 0.08
111 | GGCAGAGCUCAAGACAGCGUGGUAAAGUGGCUGUGGCUAGACUGAC | 0.05
112 | GGCAGAGCUCACCACAGCGUGGCAAAGUCCCUGUGGCUAGACUGCC | 0.03
